Values joined by “and” are separate entries in the source; they are usually repeats but may differ in a detail not shown here. Equal entries are not always repeated. Hit rate of the full screen: of about 150,000 compounds, about 6,500 (4.3%) were called active. This list was built around the results that the source calls inconclusive (neither active nor inactive); the mix of calls is not that of the screen. Calls come from the whole dose curve; as a rule, active = well fitted inhibition curve with a large enough effect (not every such curve was filed as active); inconclusive = small, poorly fitted or top-dose-only effect, or another doubt; inactive = no such curve, though single readings can be large or run the other way. Where the call is inconclusive, the potency comes from a doubtful curve fit.
What follows are compounds tested against 15-hydroxyprostaglandin dehydrogenase [NAD(+)] (Homo sapiens) (UniProt P15428) (assay: qHTS Assay for Inhibitors of HPGD (15-Hydroxyprostaglandin Dehydrogenase)). Conditions: purified HPGD, NADH fluorescence kinetic, PGE2 substrate; activity change, negative = inhibition: stronger effect = lower value.
Chain of UniProt P15428 (P15428 whole entry, looked up): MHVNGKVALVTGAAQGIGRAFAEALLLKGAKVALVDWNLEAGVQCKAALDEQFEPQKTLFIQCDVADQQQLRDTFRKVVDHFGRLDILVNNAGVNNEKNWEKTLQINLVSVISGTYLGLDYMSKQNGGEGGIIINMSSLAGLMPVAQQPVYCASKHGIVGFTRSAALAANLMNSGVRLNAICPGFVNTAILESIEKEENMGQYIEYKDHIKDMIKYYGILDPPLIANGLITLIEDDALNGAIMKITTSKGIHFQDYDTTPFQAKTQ
Method in brief: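 NADH formation kinetics: reaction with 30 uM PGE2 and 1 mM NAD+ (final), 20 nM enzyme, Tris-HCl pH 8 with Tween 20, after 15 min compound preincubation at room temperature. Fluorescence change, last versus first of five reads.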
% is set by controls: 0 for no effect and ±100 for the full control effect; potency is the fitted concentration of half-maximal effect; tags give direction and shape of the fitted curve.

Compound | activity change, negative = inhibition | Potency
Cc1c(Br)cc(C(=O)NC2CCCCC2)c(C)c1C | inactive: -12.6% | –
C=CCNC(=O)c1c(N)n(-c2cccc(S(N)(=O)=O)c2)c2nc3ccccc3nc12 | – | inconclusive: 25.1 µM [inhibitor, partial curve]
N#C/C(=C\c1cccc(Oc2ccc(C(F)(F)F)cc2[N+](=O)[O-])c1)c1nc2ccccc2[nH]1 | – | inconclusive: 25.1 µM [inhibitor, single point]
O=C(NCc1ccccc1)c1ccc(C2SCC(=O)N2Cc2ccccc2)cc1 (configuration not stated) | – | active: 10 µM
CCOCCn1c(SCc2ccc(F)cc2)nc2c1c(=O)[nH]c(=O)n2C | inactive: -7.52% | –
CCSc1cc(C)nc2c(-c3ccccc3)c(C)nn12 | – | inconclusive: 28.2 µM [inhibitor, single point]
COC(=O)CCCCCCCCCCN1CCCCC1 | inactive: -3.61% | –
COc1ccc(-c2nnc3sc(-c4ccccn4)nn23)cc1 | inactive: -17.4% | –
CCOC(=O)N1CCN(C(=O)COc2cccc3c2CCN(Cc2ccc(F)cc2)C3=O)CC1 | inactive: -11.9% | –
COc1ccc(Nc2oc(COc3ccc(C)cc3)nc2C#N)cc1 | – | active: 25.1 µM
Cc1ccc(C2C=C(c3ccccc3OC(F)F)Nc3ncnn32)cc1 (configuration not stated) | – | inconclusive: 39.8 µM [inhibitor, partial curve, poor fit]
CCOC(=O)CNS(=O)(=O)c1cc(-c2nn(C)c(=O)c3ccccc23)ccc1C | – | active: 15.8 µM
CN1CCN(C(=O)c2cnn3c(C(F)(F)F)cc(-c4cccs4)nc23)CC1 | – | inconclusive: 20 µM [inhibitor, partial curve]
O=C(Cc1c(Sc2ccccc2)c2ccccc2n1Cc1ccccc1)NCCO | – | inconclusive: 17.8 µM [inhibitor, partial curve]
N#Cc1ccsc1NC(=O)CSc1ncnc2ccccc12 | – | inconclusive: 31.6 µM [inhibitor, partial curve, poor fit]
COc1ccc2[nH]c(=O)c(CN(C(=O)c3ccncc3)C(C)C)cc2c1 | – | inconclusive: 31.6 µM [inhibitor, partial curve]
O=C(COc1cccc(Cl)c1)N/N=C\c1cc2ccccc2nc1Cl | – | inconclusive: 25.1 µM [inhibitor, partial curve]
COCC(=O)N(Cc1cc2cc(OC)ccc2[nH]c1=O)c1ccccc1OC | – | inconclusive: 39.8 µM [inhibitor, partial curve]
O=C(NNC(=O)C1CC2CCC1C2)c1sc2ccccc2c1Cl (configuration not stated) | inactive: -9.65% | –
Cc1cc(NC(=O)c2cc(CC(C)C)on2)no1 | inactive: -12.5% | –
COc1ccc(-c2nc(C#N)c(NCC3CCCO3)o2)cc1 (configuration not stated) | – | inconclusive: 28.2 µM [inhibitor, partial curve]
O=C(Nc1ncc(Cc2ccccc2)s1)C1COc2ccccc2O1 (configuration not stated) | inactive: -8.17% | –
CCOC(=O)C1CCN(C(=O)Nc2ccc(NC(=O)C3CCN(C(=O)OCC)CC3)cc2)CC1 | inactive: -4.87% | –
CC(C)N(C)CCOC(=O)c1ccccc1Br | inactive: -0.89% | –

Compound | activity change, negative = inhibition | Potency
COc1ccc(-c2[nH]c(-c3ccc(F)cc3)nc2SCC(=O)NC2CCCC2)cc1 | – | inconclusive: 11.2 µM [inhibitor, partial curve]
CCn1cc(C(=O)O)c(=O)c2cc(F)c(N3CCN(C(=O)Nc4ccccc4)CC3)cc21 | – | inconclusive: 25.1 µM [inhibitor, partial curve]
O=C1c2c(O)cc(O)cc2OC(c2ccc(O)c(O)c2)C1O (configuration not stated) | – | inconclusive: 3.55 µM [inhibitor, full curve]
Cc1cc(C)n(-c2ncnc3sc4c(c23)CCCC4)n1 | – | inconclusive: 28.2 µM [inhibitor, single point]
CC(NC(=O)c1cc2ccccc2o1)c1cccs1 (configuration not stated) | – | inconclusive: 31.6 µM [inhibitor, partial curve]
CCOC(=O)c1cnc2ccc(OCC)cc2c1NCc1ccccc1OC | – | inconclusive: 31.6 µM [inhibitor, partial curve]
O=C(CSc1nc2scc(-c3ccco3)c2c(=O)n1-c1ccccc1)NCC1CCCO1 (configuration not stated) | inactive: -9.23% | –
Cn1sc(NC(=O)c2ccccc2Cl)nc1=O | – | active: 14.1 µM
Cc1cccc(C)c1Nc1nnc(SC(C)C(=O)Nc2c(C)n(C)n(-c3ccccc3)c2=O)s1 (configuration not stated) | inactive: -8.71% | –
O=C(C1CC1)N1CCc2cc(Br)cc(S(=O)(=O)NCCCN3CCCC3)c21 | – | inconclusive: 6.31 µM [inhibitor, single point]
N#CCCN(Cc1cccnc1)C(=O)Nc1ccc(Cl)c(Cl)c1 | inactive: -2.59% | –
COc1cccc(CNc2cc(CSc3ccc(Cl)cc3)nc(C)n2)c1 | inactive: -7.78% | –
O=c1oc2c(CN3CCCCCC3)c(O)ccc2cc1-c1nc2ccccc2[nH]1 | – | inconclusive: 15.8 µM [inhibitor, partial curve]
COCC(=O)Nc1nnc(COc2ccc(Cl)cc2)s1 | inactive: -18% | –
COc1ccc(CNC(=O)C(C#N)c2nc3ccccc3nc2N2CCN(C)CC2)cc1 (configuration not stated) | inactive: -6.91% | –
O=C1C(Cl)=C(Nc2ccccc2O)C(=O)N1CCc1ccccc1 | – | active: 11.2 µM
NS(=O)(=O)c1ccc(N/C=C\C(=O)c2ccc3ccccc3c2)cc1 | inactive: -13.9% | –
Cn1c(/C=N/NC(=O)c2ccccc2)nc2ccccc21 | – | inconclusive: 31.6 µM [inhibitor, partial curve]
CC1=[N+](C)c2ccc3ccccc3c2C1(C)C | inactive: -16.6% | –
N#C/C(=C/c1ccc(N2CCCCCC2)o1)c1ccc(Cl)cc1 | – | inconclusive: 28.2 µM [inhibitor, partial curve]
O=C(NC(=O)c1ccccc1F)Nc1nc(-c2cccs2)cc(C(F)(F)F)n1 | – | inconclusive: 28.2 µM [inhibitor, partial curve]
Cc1cc2[nH]c(=S)[nH]c2cc1C | – | active: 14.1 µM
Oc1ccc(Cl)cc1C=Nc1cnc2ccccc2c1 | – | inconclusive: 3.55 µM [inhibitor, single point]
Cc1cccc(NC(=O)CCN2C(=O)C3C4C=CC(C4)C3C2=O)n1 (configuration not stated) | inactive: -5.45% | –

Compound | activity change, negative = inhibition | Potency
CCN(CC)S(=O)(=O)c1cc([N+](=O)[O-])ccc1N=Nc1c(O)[nH]c2ccccc12 | inactive: -9.1% | –
CCCNC(=O)Cn1c2ccccc2c2nc(=O)cc(C)n21 | – | inconclusive: 28.2 µM [inhibitor, partial curve]
CCc1cc(=O)oc2cc(OCc3nn[nH]n3)ccc12 | – | inconclusive: 25.1 µM [inhibitor, partial curve]
COC(=O)C1=CN(C(C)C)C=C(C(=O)OC)C1c1cc2c(cc1Br)OCO2 | – | inconclusive: 25.1 µM [inhibitor, partial curve]
O=C(O)CC(C(=O)O)N1C(=O)/C(=C/c2ccc(-c3nc4ccccc4s3)o2)SC1=S (configuration not stated) | – | active: 25.1 µM
Cc1cccn2c(=O)c3cc(C(=O)NCCN4CCOCC4)n(Cc4ccccc4)c3nc12 | – | inconclusive: 17.8 µM [inhibitor, partial curve]
Cc1cc(C)c(S(C)(=O)=O)c(Sc2ccc(Cl)cc2)n1 | inactive: -5.79% | –
O=C(c1ccco1)N1CCN(C(c2ccc(Cl)cc2)c2nnnn2Cc2ccccc2)CC1 (configuration not stated) | inactive: -2.15% | –
CCCc1cc(N2CCCC2)n2nc(C)c(-c3ccccc3)c2n1 | – | inconclusive: 22.4 µM [inhibitor, partial curve]
COc1ccc(Cc2nc(-c3ccc(-n4cccc4)cc3)no2)cc1OC | – | inconclusive: 28.2 µM [inhibitor, partial curve]
CC(=O)Oc1c(C(=O)c2nnc(C)o2)c(=O)n(C)c2ccccc12 | – | inconclusive: 22.4 µM [inhibitor, partial curve, poor fit]
CCCNC(=O)c1c(C)cc(=O)oc1C | inactive: -10.9% | –
Cc1ccc(Cn2cccc(NC(=O)NC3CCCCC3)c2=O)cc1 | – | inconclusive: 22.4 µM [inhibitor, partial curve]
COc1ccc2[nH]c(-c3cccc(F)c3)cc(=O)c2c1 | – | inconclusive: 31.6 µM [inhibitor, partial curve] and inconclusive: 4.47 µM [inhibitor, partial curve]
CN1CCN(c2ccc(S(=O)(=O)N3CCCCC3)cn2)CC1 | inactive: -2.13% | –
N#C/C(=C/c1ccc(C(=O)O)cc1)C(=O)NCc1ccccc1 | – | inconclusive: 14.1 µM [inhibitor, partial curve]
CC(=O)c1c(COC(=O)c2ccco2)nc2ccccc2[n+]1[O-] | – | inconclusive: 12.6 µM [inhibitor, partial curve]
COCCn1nnnc1CN1CCC(Cc2ccccc2)CC1 | inactive: -9.16% | –
COc1ccc(-c2cc(C(F)(F)F)n3nc(C(=O)NCc4ccco4)cc3n2)cc1 | – | inconclusive: 25.1 µM [inhibitor, partial curve]
COCC(=O)Nc1ccc(N(C)C)cc1 | – | inconclusive: 17.8 µM [inhibitor, partial curve]
O=c1cc(/C=C/c2c(F)cccc2Cl)[nH]c2ccccc12 | – | inconclusive: 2 µM [inhibitor, partial curve]
CCn1c(SCC(=O)NCCc2ccccc2)nnc1-c1ccco1 | inactive: -21.8% | –
COc1ccc(OC)c(/C=N/NC(=O)CCCC(=O)Nc2cccc(Br)c2)c1 | – | inconclusive: 31.6 µM [inhibitor, partial curve]
CCCCCCNC(=O)c1cc(-c2ccco2)nc2ccccc12 | – | inconclusive: 25.1 µM [inhibitor, partial curve]

Source: PubChem BioAssay AID894 (National Center for Advancing Translational Sciences (NCATS), 2007)
